Test results published in the RNAGym collection of RNA variant scans (doi:10.7554/elife.90254).
The source gives no read counts; variants with many changes may rest on few reads.

B1: LINE1-mini (parent)
chain: GGCAGAGCUCAACACAGCGUGGCAAAGUGGCUGUGGCUAGACUGCC

Variants of: B1
Experiment: self-cleavage, relative activity (ratio to wild type); higher = more cleavage; in vitro, sequencing; the parent is a self-cleaving ribozyme

Variant	self-cleavage
G2U C13U C15A C42A	0.11
G2U A12C G19U	0.04
G2U C8U G17A G29A	0.03
G2U C10U A12C G29C C46A	0
G2U A12C G36U A39C	0.03
G2U C10A A12G C18G G30U G40C	0
G2U C8G U34G G36A	0.04
G2C U9G C13A C18A	0.02
G2U A11G G29U	0.01
G2U A16G C37G G40U	0.02
G2U A12C G21U A26G G36C	0.01
G2U C3A G29U U43A	0.47
G2U A39U C42A	0.09
G2C C18U C23A	0.18
G2C C15A U38G G44C	0.04
G2C G33C C46A	0.04
G2U A11G G21A G22A	0
G2U C8U G27A G30C U43C	0.2
G2C C31A A41G	0.04
G2U C23G G30U	0.04
G2U C31G G33U C45U	0.02
G2C C23G A41C	0.13
G2C C15U A24C G27C	0.05
G2U A4G G7A	0.04

Variant	self-cleavage
G2U A16U A26C U43A	0.08
G2C C18G A25C G30A C31U G33C C45G	0.05
G2C C18A C23A U32G C45A	0.07
G2U A6C C18A G30A	0.02
G2U C13A C23A	0.04
G2U C3A G7C A16C G17A U32C G40U	0.09
G2U C18U C46G	0.03
G2C C10A G29U G44C	0.01
G2U A4G C42U	0.18
G2U A4U C42A	0.11
G2C U9G A24U G40U	0.08
G2U A11G A12U A25G U38A	0.01
G2U A11G C13U C18G	0.04
G2C C13G G22C C23A G29U	0.22
G2U C8A C10U A16C G36U A39C	0.02
G2C G5C U34A C45U	0.03
G2U A6C U9G A12U C31U	0.01
G2C G7C G29U	0.25
G2C G7C U9A G33U C37U U38C U43A	0.02
G2U C8A C10A G19C	0
G2C C10G G22C G35U G36A U38C	0.01
G2U C3G A4G C42U	0.22
G2C G7U C10G U38A	0.02
G2U C13G C46U	0.03

Variant	self-cleavage
G2C G17U C42U	0.03
G2C C10A C13G G33A	0.01
G2U C10U A11C	0.05
G2U C3A C13A U34G C46A	0.04
G2C G5A G7U A26G U28G G35U	0.37
G2C C15A A26U	0.06
G2U C45G C46G	0.47
G2U A4G G7U C8G	0.08
G2C G22C A39G	0.42
G2C G19C U28C G40U	0.04
G2U A11G G36A	0.01
G2C G29A C37U	0.09
G2U A6U A11C A14C G17U C31A	0.02
G2U C23U G44C	0.04
G2C C10U G17A C23G U43G	0
G2U C3A G22C G27U	0.73
G2U C10A G30U U38A	0.02
G2U C23G A24C C37U	0.11
G2C C18U A25C C31U	0.15
G2C C18U A25C G36A C42G	0.09
G2U C8U C10U C18G C45U	0.01
G2C C10A G29U	0
G2C G5U U20G	0.01
G2C G7A C10G	0.04

Variant	self-cleavage
G2U A14U C31U	0.05
G2C G35A C45A	0.13
G2C G7A C18A A24G G40U	0.08
G2U C10G C13G G30U	0.01
G2U A6U C23U A24G A26U	0.06
G2C C15U C18U G40A	0.01
G2C C10U A14C A24G C31G U32G A41C	0.02
G2U A12U G21C U28A	0.04
G2U C10A G27A	0.01
G2U C3A A4G A6G	0.12
G2U A6U A41G	0.2
G2U A6U C10A	0.09
G2U A12G C42U	0.39
G2C C10G G30C	0.01
G2C C10G G30A	0
G2C C10G C18G G36A	0
G2C G5A G17C G30U	0.05
G2U A4G A12C C13A	0.01
G2U A6G G22U	0.03
G2U A4U G21U	0.06
G2C G22A C42U	0.02
G2U A12C G36U	0.04
G2U C10U A11C U28A	0.02
G2U C10A G17A C31U C37A	0

Variant	self-cleavage
G2U A11G G17A C45A	0.01
G2U A6G A11G C13G A16U G35U G40C	0.02
G2C U9C G22A A25G	0
G2C G7A C10G C13A A16U G21U G27U	0.03
G2C C10U C31U A41C	0.03
G2U C3G G7C U38G	0.03
G2U C15A G29C	0.07
G2U A14C G30U	0.04
G2C C31A U32G	0.09
G2U A4C G5U	0.1
G2U C3U G27C G36U A41C	0.03
G2C C13G A39U	0.06
G2C C10A G21U G44C	0
G2U C18A U20C A26C C31G G35A	0.01
G2C G21U C46A	0.12
G2U C3A U9C C31A A39U	0.01
G2C C8U C42G	0.39
G2U C37G G40A	0.03
G2U A12C C46A	0.01
G2C G29U U32A G35A A41C	0.03
G2C G19C G21U A25C G27U	0.36
G2C U28A U32G A39U C42U	0.03
G2U C10U A12U C18U A25C A26G G30U C46A	0.01
G2C G5A G36U	0.06

Variant	self-cleavage
G2C G40U C42U U43A	0.13
G2U C18G G36C	0.02
G2U C23A U38A	0.03
G2U A16G U28A A41G	0.02
G2C G5U G17C	0.02
G2C C10A U28G U34A G36U A41C	0.01
G2U A11C C13G U32C	0.01
G2U A16G A26U G30A	0.02
G2U C23A G29U U34C	0.05
G2U C31A U38A G44C	0.02
G2U A14U G19U G21U A41C C42A C46A	0.05
G2U C8A A26C G27U U34A	0.08
G2U A4G A6G C10A A11G G29U G40U	0.01
G2C U9G U43A	0.04
G2C C10G U20A G35C G36C G40U C45U C46U	0
G2C G17A G27A	0.15
G2U A6G A24G G27A G33U	0.03
G2C G17U C18G G19A	0.06
G2U C10G G17C G30U G40U	0
G2C G7C C10A A11G G27C G40U	0.01
G2C C13G A14U C23A U38A	0.01
G2C G5U C15U C42G	0.03
G2U C37G C46A	0.02
G2C U9A C37A	0.09

Variant	self-cleavage
G2U A12C C13U A24U G29U	0.04
G2C C8U C15A G27U G36A G44C C46U	0.19
G2U C10U C37A	0.03
G2C C13G U38A G40C A41U	0.05
G2U C10U A11C C31G	0.01
G2U C3G G40U	0.03
G2C G33U C42U	0.02
G2C U20A A25U G27C	0.03
G2C C10G A24G C31U C46G	0.01
G2C U9A G27C	0.19
G2U A14U G33C	0.01
G2C G5A G21U G40U U43C	0.43
G2U C15G A16U G35C G40C	0.01
G2U A16G U20G G44A	0
G2C U20C G44A	0.08
G2U C10A G19A A25U A41G	0
G2U C18G A25G	0.02
G2U C8G C15G G17A C42A U43C	0.01
G2C C8U A24C C31A C45A	0.25
G2C C10A C31A C37U G44U C46A	0
G2C G17C G30A A39U	0.01
G2C G7A G19U G22C A25U U32C C45A	0.22
G2U A6U G7U	0.03
